Data from paper PMC7297730.
These are yes or no findings as the source states them, for the method shown. Some results given as binding are weak or reduced against the parent protein; the word gives no strength. Blank lines part the entries; values can stand above or below the binder they belong to.

Columns and labels:
[1] = biological target: T1, pGBKT7-Nse3(aa1-328) (S. pombe) (UniProt Q9Y7U4); test: two-hybrid; 3Y2H of the Nse1-Nse3-Nse4 trimer: hybrid Nse3 and Nse4 with non-hybrid Nse1 wild type (Fig. 4A, columns 5 and 6; Fig. 5A, column 6)
T1 sequence: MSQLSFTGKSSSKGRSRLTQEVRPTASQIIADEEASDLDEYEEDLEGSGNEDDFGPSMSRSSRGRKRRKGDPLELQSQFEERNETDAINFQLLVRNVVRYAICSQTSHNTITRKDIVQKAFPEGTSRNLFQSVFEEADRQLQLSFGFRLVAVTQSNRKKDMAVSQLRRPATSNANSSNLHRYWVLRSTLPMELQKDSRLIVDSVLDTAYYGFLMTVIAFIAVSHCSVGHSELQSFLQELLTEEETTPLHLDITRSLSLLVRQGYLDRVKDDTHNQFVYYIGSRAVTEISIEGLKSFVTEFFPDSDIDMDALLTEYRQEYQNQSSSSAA

[2] = biological target: T2, pGADT7-Nse4(aa1-300)/WT (S. pombe) (UniProt Q6BDR8); test: as above
T2 sequence: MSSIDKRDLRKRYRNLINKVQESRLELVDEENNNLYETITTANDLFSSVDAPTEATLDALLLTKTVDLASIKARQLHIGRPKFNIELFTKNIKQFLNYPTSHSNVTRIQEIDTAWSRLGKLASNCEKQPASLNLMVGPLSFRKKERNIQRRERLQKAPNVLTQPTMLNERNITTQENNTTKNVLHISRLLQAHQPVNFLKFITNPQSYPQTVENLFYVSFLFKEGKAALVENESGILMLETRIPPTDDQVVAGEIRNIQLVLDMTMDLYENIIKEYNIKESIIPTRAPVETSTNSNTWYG

[3] = biological target: T1, pGBKT7-Nse3(aa1-328) (S. pombe); test: two-hybrid; 3Y2H of the Nse1-Nse3-Nse4 trimer: hybrid Nse3 and Nse4 with non-hybrid Nse1/Q18A, M21A (Fig. 4A, columns 7 and 8)
[4] = biological target: T1, pGBKT7-Nse3(aa1-328) (S. pombe); test: two-hybrid; classical Y2H of the Nse3-Nse4 binary interaction (Fig. 4A, columns 3 and 4; Fig. 5A, column 4)

binding [1]: binds
binding [2]: binds
B1: Nse1(aa1-232), non-hybrid (protein, UniProt Q53EK2 1-232)
chain: MEKERQDGLSDKHKFILQYIMCRTAGVDNEQVRELVQEQYGETATVEDVINELNNSLHNFDFKIKRVQDQLDGRLTLHFQNLSGDPVSQMATPYPPVQIELMRKIIEWIMKCDDYQYSLTTLQIQKLSRKEMGLAPSVIESHLHTFERDGWLRQREGIWTFTNHALAELDAYLHNEYESNLYECNACREIVIAGYVCDCGYCLHVYCCKHLAHVNCINCNTPWANATVIGRW

binding [3]: binds
binding [4]: binds
binding [1]: binds
B2: pGADT7-Nse4(aa1-300)/WT (protein, UniProt Q6BDR8 1-300)
chain: T2 sequence
